Reference: the supplement of paper PMC11125491
± gives the standard deviation of the averaged measurements. Growth of baker's yeast expressing single-residue variants of Pneumocystis jirovecii dihydrofolate reductase in 8.8 or 44 µM methotrexate (about 75% and 90% inhibition of the wild type). Selection coefficient per generation; 0 = like wild type, above 0 = less sensitive, below 0 = more sensitive or loss of function. No active / inactive call per row; the paper calls resistant above 0.220 (8.8 µM) or 0.243 (44 µM) together with a significance test. At 44 µM about 15% of codons end with one read or none, so the lowest values are floors (replicate rank correlation 0.74; 0.94 at 8.8 µM).

B1: UniProt A0EPZ9; numbered along this chain (parent)
chain: MDWQKSLTLIVALTLSRGIGLKNDLPWKLKSDMMFFSRVTSGLLVTRSTGQMNVVLMGRKTWESLPAHSRPLKNRINVVISRQEVLDLGGGAYHARSLDDALALLSQIYDSTSKIQLNRVFVIGGGELCKAAMEHSRLNRIIATVIHNEVDCDVFFPIDFRSSQSCLPWRKQDHSVLEAWVGSKVPQGKINENGFIYEFEMWIRDI

Variants of: B1
Assay: selection coefficient against synonymous wild-type codons (log2 per generation); higher = faster growth than wild type
Settings: with Saccharomyces cerevisiae carrying the variant on a plasmid
Method: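 Pooled growth of yeast carrying single-residue variants of P. jirovecii dihydrofolate reductase (own DFR1 gene intact), two passages at 30 °C, three cultures, sequenced before and after. Codons with under 15 starting reads are left out; codons of one change are averaged.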

Variant | selection coefficient against synonymous wild-type codons (log2) (methotrexate 8.8 µM) | selection coefficient against synonymous wild-type codons (log2) (methotrexate 44 µM)
MDWQKSLTLIVALTLSRGIGLKNDLPWKLKSDMMFFSRNTSGLLVTRSTGQMNVVLMGRKTWESLPAHSRPLKNRINVVISRQEVLDLGGGAYHARSLDDALALLSQIYDSTSKIQLNRVFVIGGGELCKAAMEHSRLNRIIATVIHNEVDCDVFFPIDFRSSQSCLPWRKQDHSVLEAWVGSKVPQGKINENGFIYEFEMWIRDI [V39N] | 0.289 ± 0.017 | 0.41 ± 0.085
MDWQKSLTLIVALTLSRGIGLKNDLPWKLKSDMMFFSRITSGLLVTRSTGQMNVVLMGRKTWESLPAHSRPLKNRINVVISRQEVLDLGGGAYHARSLDDALALLSQIYDSTSKIQLNRVFVIGGGELCKAAMEHSRLNRIIATVIHNEVDCDVFFPIDFRSSQSCLPWRKQDHSVLEAWVGSKVPQGKINENGFIYEFEMWIRDI [V39I] | 0.0667 ± 0.041 | 0.127 ± 0.11
MDWQKSLTLIVALTLSRGIGLKNDLPWKLKSDMMFFSRSTSGLLVTRSTGQMNVVLMGRKTWESLPAHSRPLKNRINVVISRQEVLDLGGGAYHARSLDDALALLSQIYDSTSKIQLNRVFVIGGGELCKAAMEHSRLNRIIATVIHNEVDCDVFFPIDFRSSQSCLPWRKQDHSVLEAWVGSKVPQGKINENGFIYEFEMWIRDI [V39S] | 0.174 ± 0.033 | 0.221 ± 0.031
MDWQKSLTLIVALTLSRGIGLKNDLPWKLKSDMMFFSRTTSGLLVTRSTGQMNVVLMGRKTWESLPAHSRPLKNRINVVISRQEVLDLGGGAYHARSLDDALALLSQIYDSTSKIQLNRVFVIGGGELCKAAMEHSRLNRIIATVIHNEVDCDVFFPIDFRSSQSCLPWRKQDHSVLEAWVGSKVPQGKINENGFIYEFEMWIRDI [V39T] | 0.0453 ± 0.039 | 0.017 ± 0.05
MDWQKSLTLIVALTLSRGIGLKNDLPWKLKSDMMFFSRQTSGLLVTRSTGQMNVVLMGRKTWESLPAHSRPLKNRINVVISRQEVLDLGGGAYHARSLDDALALLSQIYDSTSKIQLNRVFVIGGGELCKAAMEHSRLNRIIATVIHNEVDCDVFFPIDFRSSQSCLPWRKQDHSVLEAWVGSKVPQGKINENGFIYEFEMWIRDI [V39Q] | 0.0864 ± 0.0076 | 0.25 ± 0.062
MDWQKSLTLIVALTLSRGIGLKNDLPWKLKSDMMFFSRGTSGLLVTRSTGQMNVVLMGRKTWESLPAHSRPLKNRINVVISRQEVLDLGGGAYHARSLDDALALLSQIYDSTSKIQLNRVFVIGGGELCKAAMEHSRLNRIIATVIHNEVDCDVFFPIDFRSSQSCLPWRKQDHSVLEAWVGSKVPQGKINENGFIYEFEMWIRDI [V39G] | -0.17 ± 0.046 | 0.0647 ± 0.033
MDWQKSLTLIVALTLSRGIGLKNDLPWKLKSDMMFFSRPTSGLLVTRSTGQMNVVLMGRKTWESLPAHSRPLKNRINVVISRQEVLDLGGGAYHARSLDDALALLSQIYDSTSKIQLNRVFVIGGGELCKAAMEHSRLNRIIATVIHNEVDCDVFFPIDFRSSQSCLPWRKQDHSVLEAWVGSKVPQGKINENGFIYEFEMWIRDI [V39P] | -0.402 ± 0.03 | -0.154 ± 0.061
MDWQKSLTLIVALTLSRGIGLKNDLPWKLKSDMMFFSRLTSGLLVTRSTGQMNVVLMGRKTWESLPAHSRPLKNRINVVISRQEVLDLGGGAYHARSLDDALALLSQIYDSTSKIQLNRVFVIGGGELCKAAMEHSRLNRIIATVIHNEVDCDVFFPIDFRSSQSCLPWRKQDHSVLEAWVGSKVPQGKINENGFIYEFEMWIRDI [V39L] | 0.244 ± 0.033 | 0.284 ± 0.059
MDWQKSLTLIVALTLSRGIGLKNDLPWKLKSDMMFFSRWTSGLLVTRSTGQMNVVLMGRKTWESLPAHSRPLKNRINVVISRQEVLDLGGGAYHARSLDDALALLSQIYDSTSKIQLNRVFVIGGGELCKAAMEHSRLNRIIATVIHNEVDCDVFFPIDFRSSQSCLPWRKQDHSVLEAWVGSKVPQGKINENGFIYEFEMWIRDI [V39W] | -0.0628 ± 0.028 | -0.0841 ± 0.12
MDWQKSLTLIVALTLSRGIGLKNDLPWKLKSDMMFFSRMTSGLLVTRSTGQMNVVLMGRKTWESLPAHSRPLKNRINVVISRQEVLDLGGGAYHARSLDDALALLSQIYDSTSKIQLNRVFVIGGGELCKAAMEHSRLNRIIATVIHNEVDCDVFFPIDFRSSQSCLPWRKQDHSVLEAWVGSKVPQGKINENGFIYEFEMWIRDI [V39M] | 0.458 ± 0.025 | 0.54 ± 0.014
MDWQKSLTLIVALTLSRGIGLKNDLPWKLKSDMMFFSRYTSGLLVTRSTGQMNVVLMGRKTWESLPAHSRPLKNRINVVISRQEVLDLGGGAYHARSLDDALALLSQIYDSTSKIQLNRVFVIGGGELCKAAMEHSRLNRIIATVIHNEVDCDVFFPIDFRSSQSCLPWRKQDHSVLEAWVGSKVPQGKINENGFIYEFEMWIRDI [V39Y] | -0.0111 ± 0.025 | 0.202 ± 0.07
MDWQKSLTLIVALTLSRGIGLKNDLPWKLKSDMMFFSRHTSGLLVTRSTGQMNVVLMGRKTWESLPAHSRPLKNRINVVISRQEVLDLGGGAYHARSLDDALALLSQIYDSTSKIQLNRVFVIGGGELCKAAMEHSRLNRIIATVIHNEVDCDVFFPIDFRSSQSCLPWRKQDHSVLEAWVGSKVPQGKINENGFIYEFEMWIRDI [V39H] | 0.0264 ± 0.051 | 0.166 ± 0.039
MDWQKSLTLIVALTLSRGIGLKNDLPWKLKSDMMFFSRKTSGLLVTRSTGQMNVVLMGRKTWESLPAHSRPLKNRINVVISRQEVLDLGGGAYHARSLDDALALLSQIYDSTSKIQLNRVFVIGGGELCKAAMEHSRLNRIIATVIHNEVDCDVFFPIDFRSSQSCLPWRKQDHSVLEAWVGSKVPQGKINENGFIYEFEMWIRDI [V39K] | -0.572 ± 0.17 | -0.303 ± 0.16
MDWQKSLTLIVALTLSRGIGLKNDLPWKLKSDMMFFSRRTSGLLVTRSTGQMNVVLMGRKTWESLPAHSRPLKNRINVVISRQEVLDLGGGAYHARSLDDALALLSQIYDSTSKIQLNRVFVIGGGELCKAAMEHSRLNRIIATVIHNEVDCDVFFPIDFRSSQSCLPWRKQDHSVLEAWVGSKVPQGKINENGFIYEFEMWIRDI [V39R] | -0.495 ± 0.11 | -0.303 ± 0.15
MDWQKSLTLIVALTLSRGIGLKNDLPWKLKSDMMFFSRVASGLLVTRSTGQMNVVLMGRKTWESLPAHSRPLKNRINVVISRQEVLDLGGGAYHARSLDDALALLSQIYDSTSKIQLNRVFVIGGGELCKAAMEHSRLNRIIATVIHNEVDCDVFFPIDFRSSQSCLPWRKQDHSVLEAWVGSKVPQGKINENGFIYEFEMWIRDI [T40A] | -0.0516 ± 0.065 | 0.209 ± 0.04
